Assay results as given in the antibiotic and cytotoxicity screens of Wong et al. (2023).
Some of the results follow.

system: S. aureus RN4220; experiment: growth inhibition call (relative growth <= 0.2); details: 50 µM

Growth inhibition call, inactive:
CCCN(C)C[C@H]1OCCCC[C@H](C)Oc2ccc(NS(=O)(=O)c3cn(C)cn3)cc2C(=O)N([C@H](C)CO)C[C@H]1C
C[C@H](CO)N1C[C@H](C)[C@@H](CN(C)Cc2ccc(C(=O)O)cc2)Oc2ccc(NC(=O)C3CC3)cc2C1=O
CO[C@H]1CN(C)C(=O)c2cc(NS(C)(=O)=O)ccc2OC[C@H](C)N(C(=O)C2CCOCC2)C[C@H]1C
CCCC#Cc1ccc2c(c1)O[C@@H](CN(C)S(=O)(=O)c1cccc(F)c1)[C@H](C)CN([C@@H](C)CO)S2(=O)=O
O=C(C[C@H]1C[C@@H]2c3cc(NC(=O)c4ccc5c(c4)OCO5)ccc3O[C@@H]2[C@@H](CO)O1)NCCc1ccccc1
COc1ccc(S(=O)(=O)N2C[C@@H](O)COC[C@@H]3O[C@H](CC(=O)NCCCN(C)C)CC[C@H]32)cc1
C[C@@H]1CN([C@H](C)CO)C(=O)Cc2cc(NS(C)(=O)=O)ccc2O[C@@H]1CN(C)Cc1ccc(C(=O)O)cc1
O=C1OCC=C[C@H]2O[C@@]34C=CCN(CCN5CCOCC5)C(=O)[C@H]3N(CCO)C(=O)[C@@H]4[C@@H]12
C[C@@H]1CN([C@H](C)CO)C(=O)c2cccc(NC(=O)CCCCCC(=O)Nc3ccccc3N)c2O[C@@H]1CN(C)Cc1ccccc1
OC[C@H]1CC[C@@H]2O[C@H](CCc3ccc(C#CCc4ccccc4)cc3)[C@H](n3cc(-c4ccccc4)nn3)C[C@@H]2O1
Cc1ccc(OCCN)c(Br)c1
COc1ccc(S(=O)(=O)N(C)C[C@H]2Oc3c(NC(=O)c4ccncc4)cccc3C(=O)N([C@@H](C)CO)C[C@@H]2C)cc1
Cc1noc(C)c1S(=O)(=O)Nc1cccc2c1O[C@@H](CN(C)Cc1ccc(C(=O)O)cc1)[C@@H](C)CN([C@H](C)CO)C2=O
Cc1noc(C)c1NC(=O)N(C)C[C@@H]1OCCCC[C@@H](C)Oc2ccc(NC(=O)NC3CCCCC3)cc2C(=O)N([C@H](C)CO)C[C@H]1C
CCOC(=O)c1[nH]c(C)c(C(=O)C2=C(O)C(=O)N(CCN3CCOCC3)[C@H]2c2cccc(OC)c2OC)c1C
COc1ccc2c3c(n(c2c1)C)[C@@H](CO)N(C[C@]13CCN(CC1)C(=O)C1CCOCC1)C(=O)C1CCOCC1
CCCNC(=O)N1C[C@H]2[C@@H](c3ccccc31)[C@@H](CO)N2C(=O)CN1CCOCC1
C[C@@H]1CN([C@@H](C)CO)C(=O)c2cc(NC(=O)NC3CCCCC3)ccc2O[C@@H](C)CCCCO[C@H]1CN(C)Cc1ccc(C(F)(F)F)cc1
CCCNC(=O)N1C[C@H]2[C@@H](c3ccccc31)[C@H](CO)N2C(=O)CN1CCOCC1
OC[C@@H]1CN(CCN2CCOCC2)C[C@H](n2cnc3c(NC4CCC4)ncnc32)O1
O=C1CO[C@H]2CN(S(=O)(=O)c3ccccc3)C[C@@H]2N1
CN1CCN(C(=O)C[C@@H]2C=C[C@H](NC(=O)c3ccc4c(c3)OCO4)[C@@H](CO)O2)CC1
COc1ccc(NC(=O)N(C)C[C@@H]2Oc3c(NC(=O)C4CCOCC4)cccc3C(=O)N([C@H](C)CO)C[C@H]2C)cc1
C[C@H]1CN([C@@H](C)CO)C(=O)c2cc(NC(=O)Nc3ccc(F)cc3)ccc2O[C@H]1CN(C)C(=O)Nc1ccc(C(F)(F)F)cc1
C[C@H](CO)N1C[C@H](C)[C@H](CN(C)S(=O)(=O)c2cn(C)cn2)Oc2ccc(NC(=O)NC3CCCCC3)cc2C1=O
C[C@@H]1CCCCO[C@H](CN(C)Cc2ccncc2)[C@@H](C)CN([C@H](C)CO)C(=O)c2cc(NC(=O)Nc3ccccc3)ccc2O1
C[C@@H]1CCCCO[C@@H](CN(C)C(=O)C2CCCCC2)[C@H](C)CN([C@@H](C)CO)C(=O)c2cc(NC(=O)CCCCCC(=O)Nc3ccccc3N)ccc2O1
Cc1noc(C)c1NC(=O)N(C)C[C@@H]1Oc2cc(C#CCN(C)C)ccc2S(=O)(=O)N([C@@H](C)CO)C[C@@H]1C
CC(C)(O)c1cn(-c2nonc2N)nn1
CO[C@H]1CN(C)C(=O)c2cc(NC(=O)Nc3cccc(F)c3)ccc2OC[C@H](C)N(C(=O)Nc2c(C)noc2C)C[C@@H]1C
C[C@H]1CN([C@@H](C)CO)C(=O)c2cccc(NC(=O)Nc3ccc(C(F)(F)F)cc3)c2O[C@@H]1CN(C)Cc1ccc(C(=O)O)cc1
c1ccc(Oc2ccccc2)cc1
NC1CONC1=O (stereo not given)
C[C@H]1CN([C@@H](C)CO)S(=O)(=O)c2ccc(-c3ccc(F)cc3)cc2O[C@H]1CN(C)C(=O)C1CCOCC1
C[C@H]1CN([C@@H](C)CO)C(=O)c2cccc(NC(=O)Nc3cccc4ccccc34)c2O[C@H]1CN(C)C(=O)Nc1ccc2c(c1)OCO2
COc1c(OCCCN2CCOCC2)ccc2c1N=C(NC(=O)c1cnc(N)nc1)N1CCN=C21
C[C@H]1CN([C@@H](C)CO)C(=O)c2cc(N(C)C)ccc2O[C@@H]1CN(C)S(C)(=O)=O
C[C@@H]1CCCCO[C@@H](CN(C)S(=O)(=O)c2ccc(F)cc2)[C@@H](C)CN([C@@H](C)CO)C(=O)c2cc(NC(=O)Nc3ccc4c(c3)OCO4)ccc2O1
COc1cccc(S(=O)(=O)N[C@@H]2C=C[C@H](CC(=O)NC3CCC3)O[C@@H]2CO)c1
C[C@@H]1CN([C@@H](C)CO)C(=O)c2cc(NC(=O)c3ccccc3)ccc2O[C@@H](C)CCCCO[C@@H]1CN(C)C(=O)CCC(F)(F)F
